ChEMBL document CHEMBL1201862, “PubChem BioAssay data set” (2004)
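48-hour exposure; five concentrations; linearly interpolated endpoints. At the GI50, growth is halved.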 Activity calls are given as the source filed them. Cut-off read from the data, not from the text of the source: active = GI50 up to about 1.1 µM and inactive = higher.

tested on: NCI-H322M; assay: growth of human tumour cells (NCI), 48 h

Row | Compound | GI50
1 | CCCCCCCCCCCCCCCCCC(=O)NCC(COP(=O)(O)O)OCC (stereo not given) | inactive: 49.1 µM
2 | Cc1c(N2CCCC2)cc2c(c1NC(=O)c1ccccc1Cl)C(C)(C)CC2(C)C | inactive: 14.5 µM
3 | NS(=O)(=O)c1ccc(N=C2C(=O)Nc3ccccc32)cc1 | inactive: > 100 µM
4 | CN(Cc1ccccc1)Cn1ccnc1 | inactive: > 100 µM
5 | COc1cccc2cc(C(C)=O)c(=O)oc12 | inactive: > 100 µM
6 | O=C1CC(CC(=O)C2CCCCC2=O)C(=O)N1 (stereo not given) | inactive: > 100 µM
7 | COC1=CC(=O)c2c(ccc3ncnc(N)c23)C1=O | inactive: 3.52 µM
8 | [O-][N+]1(CC[N+]2([O-])CCCCC2)CCCCC1 | inactive: > 100 µM
9 | c1ccc(-c2nnc3nn4c(-c5ccccc5)cnnc4c3c2-c2ccccc2)cc1 | inactive: > 100 µM
10 | CCOC(=O)Cc1[nH]c(C(=O)c2ccccc2)cc1C(=O)c1ccccc1 | inactive: 52.8 µM
11 | O=C1Oc2ccccc2C1C/C(=N\Nc1ccccc1)c1ccccc1O (stereo not given) | inactive: 21.1 µM
12 | C(/C=N/N=C1NCCCN1)=N\N=C1NCCCN1 | inactive: > 100 µM
13 | Cc1cccc(-c2cc(=O)c3cc(C)c(C)c(C(=O)O)c3o2)c1 | inactive: > 100 µM
14 | O[C@@]12Cc3c([nH]c4ccccc34)[C@@H]3Oc4cccc5c4[C@@]31CCN(CC1CC1)[C@@H]2C5 | inactive: 52.4 µM
15 | O=C1C([P+](c2ccccc2)(c2ccccc2)c2ccccc2)=C([O-])C(=Cc2ccc(Cl)c(Cl)c2)C([O-])=C1[P+](c1ccccc1)(c1ccccc1)c1ccccc1 | inactive: 3.95 µM
16 | C1=Nc2sc3c(c2C2=NCCN12)CCCC3 | inactive: 16.7 µM
17 | COC(=O)CSSCc1ccc([N+](=O)[O-])cc1 | inactive: 16.2 µM
18 | C/C=C/[C@@]1(OC(=O)c2ccccc2)C[C@@H]2CCCC[C@@H]21 | inactive: 19.1 µM
19 | COC(=O)C1=C(C(=O)OC)N(C(C)C)[C@H]2C(C(=O)OC)=C(C(=O)OC)N(C(C)C)[C@@H]12 | inactive: > 100 µM
20 | O=C1CN(c2ccccc2)C(=O)CN1CCN1CC(=O)N(c2ccccc2)CC1=O | inactive: > 100 µM
21 | Cn1c(=O)n2c(=O)n(C)c(=O)n2c1=O | inactive: > 100 µM
22 | CC1=C(C(=O)NCc2ccccc2)C(c2ccccc2[N+](=O)[O-])C(C(=O)NCc2ccccc2)=C(C)N1 | inactive: 16.1 µM
23 | O=C(c1cccc(C(=O)c2ccc3c4c(cccc24)C(=O)N(c2ccccc2)C3=O)c1)c1ccc2c3c(cccc13)C(=O)N(c1ccccc1)C2=O | inactive: > 100 µM

Row | Compound | GI50
24 | Oc1ccccc1CNCc1nc2ccccc2[nH]1 | inactive: 91.4 µM
25 | c1csc(-c2cc(-c3ccsc3)c(-c3ccsc3)s2)c1 | inactive: 83 µM
26 | COc1cccc2c1CCc1ccccc1CC2=O | inactive: > 100 µM
27 | CC(=O)OC1C(O)COC(O[C@H]2CC[C@]34C[C@]35CC[C@]3(C)C([C@@]6(C)CC[C@@H](C(C)(C)O)O6)[C@@H](O)C[C@@]3(C)C5C[C@H](OC3OCC(O)C(O)C3O)[C@H]4C2(C)C)C1OC1OCC(O)C(O)C1O (stereo not given in full) | inactive: > 100 µM
28 | CC(C)[C@H](COC(C)(C)C)/N=C/N1CSc2ccccc21 | inactive: 24.7 µM
29 | CS/C(N)=N/c1cccc2ccccc12 | inactive: > 10 µM
30 | CCOC(=O)C1C(=O)C(=O)N2CCc3c([nH]c4ccccc34)C12 (stereo not given) | inactive: > 100 µM
31 | CCOC(=O)C(CCc1ncnc2c1ncn2Cc1ccccc1)(CCc1ncnc2c1ncn2Cc1ccccc1)C(=O)OCC | inactive: 74.5 µM
32 | Cc1ccc(NC(=O)/C(=N\NC(N)=S)C(C#N)c2ccccc2C)cc1C (stereo not given) | inactive: > 100 µM
33 | COC1(C)OC[C@@]2(C)OC(C)C1(C)C2O[Si](C(C)C)(C(C)C)C(C)C (stereo not given in full) | inactive: 37.1 µM
34 | N=C(N)n1nc2c(c1O)CCCC2 | inactive: > 100 µM
35 | CN1C(=O)[C@@]2(C=CC3(CC2)OCCO3)c2ccccc21 | inactive: > 50 µM
36 | O=C(/C=C(\O)C(=O)O)/C=C(\O)c1ccccc1 | inactive: > 4.65 µM
37 | O=C(O)COc1ccc(C(=O)/C(SS/C(C(=O)c2ccc(OCC(=O)O)c(Cl)c2Cl)=C2\C=C(c3ccc(F)cc3)SS2)=C2/C=C(c3ccc(F)cc3)SS2)c(Cl)c1Cl | inactive: 39.7 µM
38 | OC(CCN1CCN(CCOC(c2ccccc2)c2ccccc2)CC1)c1ccc(Br)cc1 (stereo not given) | inactive: 14.2 µM
39 | O[C@H]1[C@H](O)[C@@H](O)[C@@]2(O)C[C@@H](O)[C@@H]1N2 | inactive: > 100 µM
40 | O=[N+]([O-])c1ccc2nc3ccc([N+](=O)[O-])cn3c2c1 | inactive: > 100 µM
41 | COC(=O)C1CC(C=[N+](C)C)=C(SC)N1C(=O)OCc1ccccc1 (stereo not given) | inactive: > 100 µM
42 | COc1ccc(OCC(=O)O)c2c1CCC(C)C2=O (stereo not given) | inactive: > 100 µM
43 | COC(=O)c1sc2c(Cl)c(Cl)sc2c1Cl | inactive: > 100 µM
44 | COc1ccc2cc(CN3CCC(C4CCNCC4)CC3)ccc2c1 | inactive: 2.04 µM
45 | C[C@@]1(CBr)C[C@@](C)(/C=C/Cl)[C@@H](Cl)C[C@H]1Cl | inactive: 14.4 µM
46 | CCc1c(CN)c(CC)c(CNC2=NCCN2)c(CC)c1CNC1=NCCN1 | inactive: > 100 µM

Row | Compound | GI50
47 | N#CC(C#N)=c1c2ccccc2c(=C(C#N)C#N)c2ccccc12 | inactive: 16.5 µM
48 | CCOP(=O)(OCC)C(C(=O)OC)C(=O)C(=O)Nc1ccc(Cl)cc1Cl (stereo not given) | inactive: > 100 µM
49 | c1cc(-c2cn[nH]c2)cc(-c2cn[nH]c2)c1 | inactive: 49.9 µM
50 | CC(C)=CC[C@]12CCN[C@H]1N(S(=O)(=O)c1ccccc1)c1ccccc12 | inactive: 21.2 µM
51 | O=C(Nc1ccccc1)c1cc2ccccc2c(/N=N/c2ccc([N+](=O)[O-])cc2)c1O | inactive: > 100 µM
52 | Cc1nn(-c2ccccn2)c2c1C(SC#N)=C(C=O)CC2 | inactive: 15 µM
53 | CCC(C)N1CN(c2ccccc2)C2(CCN(CCCC(=O)c3ccc(F)cc3)CC2)C1=O (stereo not given) | inactive: 4.27 µM
54 | N#CC(C#N)=C1CCCCc2ccc([N+](=O)[O-])cc21 | inactive: > 100 µM
55 | NC(=O)c1cccc(/N=c2\oc3ccc(Br)cc3cc2-c2nc3ccccc3[nH]2)c1 | inactive: 15.4 µM
56 | C=CC(C)(C)n1cc(C2=C(O)C(=O)C(c3c(CC=C(C)C)[nH]c4ccccc34)=C(O)C2=O)c2ccccc21 | inactive: 1.98 µM
57 | O=c1c(Br)cc2c(-c3ccccc3)c3cc(Br)c(O)c(Br)c3oc-2c1Br | inactive: 96.8 µM
58 | CC(C)C(Nc1c2ccccc2nc2ccccc12)C(=O)O (stereo not given) | inactive: > 100 µM
59 | O=[N+]([O-])c1ccc(/C=C/c2csnn2)cc1 | inactive: > 100 µM
60 | CC#CCC1CCC(OCC)=CC1=O (stereo not given) | inactive: > 100 µM
61 | COC1(OC)CCCCCCCCC(OC)(OC)CCCCCCCC1 | inactive: > 100 µM
62 | CCOC(=O)c1sc2[n+](c1C)C(=O)/C(=C/c1ccc([N+](=O)[O-])cc1)S2 | inactive: 38.8 µM
63 | CCCSC1=N/C(=C\c2ccco2)C(=O)N1 | inactive: > 100 µM
64 | COP(=O)(OC)[C@H](O)[C@H]1C[C@@H]1c1ccccc1 | inactive: > 100 µM
65 | CC(=O)Nn1c(=S)[nH]c2ccccc21 | inactive: > 100 µM
66 | C=CCc1[nH]c2c(OCc3ccccc3)cc(N(CC=C)C(C)=O)cc2c1C | inactive: 12.3 µM
67 | C/C(O)=C/C(=O)c1[nH]c(C(=O)O)cc1C1CCN(Cc2ccccc2)C1=O (stereo not given) | inactive: 26 µM
68 | CCOc1ccc2c(c1)[n+]([O-])c(-c1ccc([N+](=O)[O-])cc1)c(N)[n+]2[O-] | inactive: > 100 µM
69 | COc1ccc2nc3ccccc3c(NCCN(C)CCCl)c2c1 | active: 0.791 µM

Row | Compound | GI50
70 | O=C(NCCCCCCCCCCCCNC(=O)Nc1cccc2ccccc12)Nc1cccc2ccccc12 | inactive: 18.3 µM
71 | c1ccc(CSc2nc3ccccc3nc2-c2cccs2)cc1 | inactive: > 100 µM
72 | Cn1c(=O)c2nc(/N=N/Nc3nncs3)[nH]c2n(C)c1=O | inactive: > 100 µM
73 | Cc1cccc2c1CC1(C2)Cc2c(C)cccc2C1=O (stereo not given) | inactive: 24.9 µM
74 | C[C@@H]1CC[C@H]2[C@H]1[C@H]1[C@@H](CC[C@]2(C)N=C=S)C1(C)C | inactive: 26.8 µM
75 | CCC1(OC(=O)CN2CCN(CCO)CC2)C(=O)OCc2c1cc1n(c2=O)Cc2cc3ccccc3nc2-1 (stereo not given) | active: 0.962 µM
76 | CCCCCCCCCCCCCCCC(=O)Nc1ccn(C2CCC(COP(=O)(O)OCC3OC(n4cc(F)c(=O)[nH]c4=O)CC3OC(C)=O)O2)c(=O)n1 (stereo not given) | inactive: 18.5 µM
77 | CCN(CC)c1nc(=O)c(C(=O)C(C)(C)C)c(C(C)(C)C)o1 | inactive: > 100 µM
78 | O=C(Nc1nnc(-c2ccc(Cl)cc2)o1)C(SC(=S)N1CCOCC1)c1ccccc1 (stereo not given) | inactive: 13 µM
79 | Cc1ccc(S(=O)(=O)N2C3C=CC(C3)[C@@H]2C(Cl)(Cl)Cl)cc1 (stereo not given in full) | inactive: 22.8 µM
80 | O=C(O/C=C\OC1CCCC1(c1ccccc1)c1ccccc1)c1ccccc1 (stereo not given) | inactive: 20.1 µM
81 | O=C(O)C(Cl)(Cl)Cl | inactive: > 100 µM
82 | CC(=O)OC[C@]1(O)CC[C@@]23CC1C[C@@H]2CCC1C(C)(C)CCC[C@@]13C (stereo not given in full) | inactive: 16.1 µM
83 | CCOC(=O)Oc1cc2c(c(OC)c1OC)-c1ccc(OC)c(=O)cc1C(NC(C)=O)CC2 (stereo not given) | active: 0.179 µM
84 | C#CC1(O)CCC2[C@@H]3CCc4cc(Oc5nc(F)nc(-c6c7ccccc7c(SCC)n6CCC)n5)ccc4C3CC[C@@]21C (stereo not given in full) | inactive: > 100 µM
85 | CCCC(O)[C@@]1(CC)CC(C)C(O)(C2(C)C[C@H](C)[C@@H](C(CC)C(=O)C(C)[C@@H](O)[C@H](C)C3OC(O)(C(CC)C(=O)O)[C@@H](C)C(O)C3CC)O2)O1 (stereo not given in full) | inactive: 1.17 µM
86 | Cc1oc2c(C)c3oc(=O)cc(C)c3cc2c1CNC(=O)[C@@H]1OCCOCCOCCOCCOCCOC1C(=O)O (stereo not given in full) | inactive: > 100 µM
87 | O=C1C(O)=C(C(CCc2ccccc2)C2=C(O)C(=O)c3ccccc3C2=O)C(=O)c2ccccc21 | inactive: 52.5 µM
88 | Cc1ccccc1-n1c2nc(=O)n(C)c(=O)c-2nc2ccccc21 | inactive: 19.4 µM
89 | COc1cc2c3cc1Oc1c(O)c(OC)cc4c1[C@H](Cc1ccc(cc1)Oc1cc(ccc1O)C[C@H]3N(C)CC2)N(C)CC4 | inactive: 16.9 µM
90 | NNC(=O)COc1nc(-c2cccs2)nc2ccc(I)cc12 | inactive: 16.4 µM
